# Measurements: the supplement of paper PMC8728848
# The other results are listed elsewhere or left out.
# Key:
# Experiment in all cases: glycan array binding signal (z-score within array); higher = stronger binding
# Conditions in all cases: glycan notation: IUPAC condensed, linker removed
# [1] = target: Neu5Ac(a2-3)Gal(b1-4)GlcNAc
# Procedure, shortened: (§1)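 From the Consortium for Functional Glycomics database, 3228 arrays were curated, keeping only those whose protein sequence was available. Binding is given as a within-array Z-score averaged across arrays sharing a protein sequence and across linkers. Negative Z-scores can be read as non-binding.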
# [2] = target: Neu5Ac(a2-3)Gal(b1-4)GlcNAc(b1-2)Man(a1-3)[GlcNAc(b1-2)Man(b1-4)GlcNAc(b1-2)Man(a1-6)]Man(b1-4)GlcNAc(b1-4)GlcNAc
# Procedure, shortened: as §1
# [3] = target: Neu5Ac(a2-3)Gal(b1-4)GlcNAc(b1-2)Man(a1-3)[Neu5Ac(a2-6)Gal(b1-4)GlcNAc(b1-2)Man(a1-6)]Man(b1-4)GlcNAc(b1-4)GlcNAc
# Procedure, shortened: as §1
# [4] = target: Neu5Ac(a2-3)Gal(b1-4)GlcNAc(b1-3)Gal(b1-3)GlcNAc
# Procedure, shortened: as §1
# [5] = target: Neu5Ac(a2-3)Gal(b1-4)GlcNAc(b1-3)Gal(b1-4)GlcNAc
# Procedure, shortened: as §1
# [6] = target: Neu5Ac(a2-3)Gal(b1-4)GlcNAc(b1-3)Gal(b1-4)GlcNAc(b1-3)Gal(b1-4)GlcNAc
# Procedure, shortened: as §1
# [7] = target: Neu5Ac(a2-3)Gal(b1-4)GlcNAc(b1-3)Gal(b1-4)[Fuc(a1-3)]GlcNAc
# Procedure, shortened: as §1
# [8] = target: Neu5Ac(a2-3)Gal(b1-4)GlcNAc(b1-3)GalNAc
# Procedure, shortened: as §1
# [9] = target: Neu5Ac(a2-3)Gal(b1-4)GlcNAc(b1-6)[Gal(b1-3)]GalNAc
# Procedure, shortened: as §1
# [10] = target: Neu5Ac(a2-3)Gal(b1-4)GlcNAc(b1-6)[Neu5Ac(a2-3)Gal(b1-3)]GalNAc
# Procedure, shortened: as §1
# [11] = target: Neu5Ac(a2-3)Gal(b1-4)GlcNAc6S
# Procedure, shortened: as §1
# [12] = target: Neu5Ac(a2-3)Gal(b1-4)[Fuc(a1-3)]GlcNAc
# Procedure, shortened: as §1
# [13] = target: Neu5Ac(a2-3)Gal(b1-4)[Fuc(a1-3)]GlcNAc(b1-3)Gal
# Procedure, shortened: as §1
# [14] = target: Neu5Ac(a2-3)Gal(b1-4)[Fuc(a1-3)]GlcNAc(b1-3)Gal(b1-4)GlcNAc
# Procedure, shortened: as §1
# [15] = target: Neu5Ac(a2-3)Gal(b1-4)[Fuc(a1-3)]GlcNAc(b1-3)Gal(b1-4)[Fuc(a1-3)]GlcNAc(b1-3)Gal(b1-4)[Fuc(a1-3)]GlcNAc
# Procedure, shortened: as §1
# [16] = target: Neu5Ac(a2-3)Gal(b1-4)[Fuc(a1-3)]GlcNAc(b1-3)GalNAc
# Procedure, shortened: as §1
# [17] = target: Neu5Ac(a2-3)Gal(b1-4)[Fuc(a1-3)]GlcNAc(b1-6)[Gal(b1-3)]GalNAc
# Procedure, shortened: as §1
# [18] = target: Neu5Ac(a2-3)Gal(b1-4)[Fuc(a1-3)]GlcNAc(b1-6)[Neu5Ac(a2-3)Gal(b1-3)]GalNAc
# Procedure, shortened: as §1
# [19] = target: Neu5Ac(a2-3)Gal(b1-4)[Fuc(a1-3)]GlcNAc6S
# Procedure, shortened: as §1
# [20] = target: Neu5Ac(a2-3)Gal6S(b1-4)GlcNAc
# Procedure, shortened: as §1
# [21] = target: Neu5Ac(a2-3)Gal6S(b1-4)[Fuc(a1-3)]GlcNAc
# Procedure, shortened: as §1
# Neu5Ac(a2-3)GalNAc = target: Neu5Ac(a2-3)GalNAc
# Procedure, shortened: as §1
# [22] = target: Neu5Ac(a2-3)GalNAc(b1-4)GlcNAc
# Procedure, shortened: as §1
# [23] = target: Neu5Ac(a2-3)[GalNAc(b1-4)]Gal(b1-4)Glc
# Procedure, shortened: as §1
# [24] = target: Neu5Ac(a2-3)[GalNAc(b1-4)]Gal(b1-4)GlcNAc
# Procedure, shortened: as §1
# [25] = target: Neu5Ac(a2-3)[GalNAc(b1-4)]Gal(b1-4)GlcNAc(b1-3)GalNAc
# Procedure, shortened: as §1
# [26] = target: Neu5Ac(a2-3)[Neu5Ac(a2-6)]GalNAc
# Procedure, shortened: as §1
# Neu5Ac(a2-6)Gal = target: Neu5Ac(a2-6)Gal
# Procedure, shortened: as §1
# Neu5Ac(a2-6)Gal(b1-4)Glc = target: Neu5Ac(a2-6)Gal(b1-4)Glc
# Procedure, shortened: as §1
# [27] = target: Neu5Ac(a2-6)Gal(b1-4)GlcNAc
# Procedure, shortened: as §1
# [28] = target: Neu5Ac(a2-6)Gal(b1-4)GlcNAc(b1-2)Man(a1-3)Man(b1-4)GlcNAc(b1-4)GlcNAc
# Procedure, shortened: as §1
# [29] = target: Neu5Ac(a2-6)Gal(b1-4)GlcNAc(b1-2)Man(a1-3)[Gal(b1-4)GlcNAc(b1-2)Man(a1-6)]Man(b1-4)GlcNAc(b1-4)GlcNAc
# Procedure, shortened: as §1
# [30] = target: Neu5Ac(a2-6)Gal(b1-4)GlcNAc(b1-2)Man(a1-3)[GlcNAc(b1-2)Man(a1-6)]Man(b1-4)GlcNAc(b1-4)GlcNAc
# Procedure, shortened: as §1
# [31] = target: Neu5Ac(a2-6)Gal(b1-4)GlcNAc(b1-2)Man(a1-3)[GlcNAc(b1-2)Man(b1-4)GlcNAc(b1-2)Man(a1-6)]Man(b1-4)GlcNAc(b1-4)GlcNAc
# Procedure, shortened: as §1
# [32] = target: Neu5Ac(a2-6)Gal(b1-4)GlcNAc(b1-2)Man(a1-3)[Man(a1-6)]Man(b1-4)GlcNAc(b1-4)GlcNAc
# Procedure, shortened: as §1
binder,measurement,setting,value
GH98CBM51-1 (Streptococcus pneumoniae) (protein) MTYLSDMDWSSATHGDIDKTKTVQKDAPFTTGNKGEHTKISLLTSDDKVKYFDKGIGTVADSPSVISYDISGQGFEKFETYIGIDQSANSSRSDHAVVDRIEIEIDGKVVYSSSVTNPEGFRYNTQAQFISVTIPQNAKKISLKSFAGEHTWGDEVVFADAKLIKTVST,glycan array binding signal (z-score),[1],-0.162
same,glycan array binding signal (z-score),[2],-0.191
same,glycan array binding signal (z-score),[3],-0.193
same,glycan array binding signal (z-score),[4],-0.197
same,glycan array binding signal (z-score),[5],-0.193
same,glycan array binding signal (z-score),[6],-0.19
same,glycan array binding signal (z-score),[7],-0.191
same,glycan array binding signal (z-score),[8],-0.153
same,glycan array binding signal (z-score),[9],-0.195
same,glycan array binding signal (z-score),[10],-0.189
same,glycan array binding signal (z-score),[11],-0.191
same,glycan array binding signal (z-score),[12],-0.191
same,glycan array binding signal (z-score),[13],-0.192
same,glycan array binding signal (z-score),[14],-0.175
same,glycan array binding signal (z-score),[15],-0.193
same,glycan array binding signal (z-score),[16],-0.15
same,glycan array binding signal (z-score),[17],-0.185
same,glycan array binding signal (z-score),[18],-0.183
same,glycan array binding signal (z-score),[19],-0.182
same,glycan array binding signal (z-score),[20],-0.187
same,glycan array binding signal (z-score),[21],-0.15
same,glycan array binding signal (z-score),Neu5Ac(a2-3)GalNAc,-0.199
same,glycan array binding signal (z-score),[22],-0.19
same,glycan array binding signal (z-score),[23],-0.196
same,glycan array binding signal (z-score),[24],-0.19
same,glycan array binding signal (z-score),[25],-0.189
same,glycan array binding signal (z-score),[26],-0.189
same,glycan array binding signal (z-score),Neu5Ac(a2-6)Gal,-0.187
same,glycan array binding signal (z-score),Neu5Ac(a2-6)Gal(b1-4)Glc,-0.192
same,glycan array binding signal (z-score),[27],-0.193
same,glycan array binding signal (z-score),[28],-0.191
same,glycan array binding signal (z-score),[29],-0.192
same,glycan array binding signal (z-score),[30],-0.19
same,glycan array binding signal (z-score),[31],-0.192
same,glycan array binding signal (z-score),[32],-0.19
